# Assay results published in the supplement of paper PMC10185492.
# The list shows a part of the results. These are enrichments in a pooled selection; single values are uncertain.
# Test system: SARS-CoV-2 3CLpro (nsp5)
# Assay: substrate phage enrichment score (protease-eluted vs HEPES control, +1 offset) (ratio); higher = better cleaved substrate
# Conditions: selection round: 3; protease elution time: 0.5 h
# Protocol: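 Random heptapeptide substrate phage display (M13 pIII fusion, heptapeptide between an N-terminal biotinylated AviTag GLNDIFEAQKIEWHE and pIII; phages immobilised on streptavidin) eluted by cleavage with 50 nM protease in 20 mM HEPES at 37 °C. Selected phages were NGS sequenced, and the enrichment score is (reads in protease sample + 1)/(reads in HEPES blank-selection control + 1).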
row,Substance,substrate phage enrichment score
1,QHFQGGS,0.724
2,QELLLHS,6.67
3,TQAAHHH,1.27
4,WRPIGKQ,20.4
5,KPYFQGG,0.846
6,VITRPQG,1.3
7,QSRLATQ,4
8,NTKRRPP,> 33
9,VTKSEAQ,> 53
10,LPRCSLC,8
11,VYFQGGS,1.73
12,AAAHHHN,1.15
13,DQQRANY,3.38
14,TEYKVNC,> 42
15,PEQIESY,17
16,INATDRR,0.2
17,DFQGGSA,0.743
18,ASHKSSL,> 36
19,CSCTHTK,1.5
20,HAKHMTE,10.5
21,SRLQSYQ,> 51
22,RENLNPT,> 24
23,TSMNGQR,5

row,Substance,substrate phage enrichment score
1,SGCSWAQ,16
2,STTVQMQ,> 33
3,PMSHGLM,2.14
4,HAAAHHH,1.01
5,GLYFQGG,2.24
6,SAAAHRH,0.6
7,SNVPVML,> 23
8,SAAPHQH,0.786
9,LTTGDDS,0.875
10,TRPKGEK,> 32
11,APYGPRG,10
12,WTDRVEC,6.33
13,MKHACQT,> 25
14,EAAAHHH,1.05
15,SLSGNPN,> 30
16,THPEWPW,2.24
17,VSERTPH,> 85
18,SGQVTLQ,> 48
19,VYRLPHR,13.5
20,SKRGANG,7
21,SAASSRQ,> 23
22,ANIPPSK,> 33
23,LSKRDRC,2.45

row,Substance,substrate phage enrichment score
1,VPSTRLQ,> 62
2,SRISPTK,1.36
3,KCTAGEK,4
4,RNSSRTA,> 40
5,EVGLPQA,7.33
6,ELRLTTR,4.27
7,SESAQWG,2.44
8,PLSPHNQ,> 25
9,WPCALQC,> 199
10,PPKVRLQ,14.8
11,DDVNWPD,2.67
12,KGTLTPP,11.5
13,SNFTSGQ,0.706
14,NAAAHHH,1.01
15,VSVLQSS,> 41
16,AQTRIEN,0.696
17,ARPMGGR,0.865
18,NASSLQS,> 38
19,PTLPILQ,> 54
20,AVREHRQ,2.18
21,NTLTNLQ,> 21
22,HSAAAHH,0.649
23,RTSPTYM,> 21

row,Substance,substrate phage enrichment score
1,LSNDRGQ,> 33
2,VSHCENN,4.83
3,TQSPTYV,> 24
4,YHHHHGA,0.778
5,TNASVIQ,> 30
6,STVRSKE,> 26
7,YESGVIE,> 22
8,RPTCRIQ,3.39
9,QLSPNKA,6
10,HPIGTRT,> 36
11,VLRHGQE,3.83
12,RYLPGLQ,10
13,AARSMLQ,> 26
14,GTAAHHH,1.04
15,EKCTKLQ,> 47
16,SEITTLQ,> 90
17,NPAAHHH,1.04
18,PQTDHDR,3.6
19,EIYLHLR,2.83
20,LPSGHSL,1.43
21,HTMPNLQ,> 69
22,TERTTLQ,> 57
23,NRAPRLQ,> 60

row,Substance,substrate phage enrichment score
1,KEVQGPE,> 26
2,ALTRPGQ,> 41
3,AETNCSR,2
4,WAHSSQR,> 23
5,PGSCLKT,1.33
6,DTYTRMH,4
7,MGSCVLH,8.83
8,VNAAHPQ,1.46
9,PETCRSM,13.3
10,ARHTELQ,> 72
11,ELNFQGG,1.79
12,TGEQGCT,12.5
13,RVAPTRA,0.222
14,PKAELKK,6.33
15,LNGQEDH,> 26
16,QLSRPAV,0.933
17,KTAAHHH,0.917
18,CPQANFQ,11.8
19,RKNAVLQ,> 116
20,IAATPSK,19.5
21,PYLPTQP,> 28
22,VPNELLK,> 26
23,SQGVKLQ,> 55

row,Substance,substrate phage enrichment score
1,AAECRHG,> 23
2,PVRAHLQ,> 23
3,SSGRHNR,1.47
4,VHSSAYG,1.56
5,CNPLTRR,2.79
6,ACGKTKV,3.4
7,EGTRCNN,10.8
8,PLSTLHN,> 26
9,RDVSSKG,> 25
10,SAEPLRN,0.421
11,AHFQGGS,5.33
12,PHASCSL,> 31
13,TATIPQI,> 30
14,MGTKLTP,> 21
15,KDRDVMS,> 29
16,HCQPGLM,> 23
17,TSGEKSC,3.14
18,SKTEWPE,0.714
19,RSFERLQ,> 47
20,YPDGSFK,2.38
21,CAPKSAR,3.6
22,SAAAQHQ,1.12
23,LSSRLQS,> 62

row,Substance,substrate phage enrichment score
1,ESVELQA,> 33
2,TPGGEFN,6.33
3,SDKARTT,> 26
4,VPSSCLQ,> 229
5,YKTRCQN,3.4
6,ELRSCLC,1.42
7,EDVWVCR,1.08
8,RLHDLRR,2.14
9,STVQPNS,6.09
10,KESVICG,7.77
11,NYGNLKQ,17.2
12,LRFFRRR,> 21
13,DESTAIH,> 21
14,TTKLQAS,> 37
15,IAGEVRS,0.15
16,AWPKLGC,> 30
17,WRSQDMK,0.467
18,DRAAHHH,0.355
19,HSELSFQ,10.5
20,NSSTTPR,0.722
21,RNTRIPT,> 22
22,STEMANP,2.25
23,IRPHIII,1.43

row,Substance,substrate phage enrichment score
1,RTLCTLQ,> 21
2,WRPHIII,1.71
3,CSDAHKP,0.8
4,AALKHWQ,> 25
5,TTAHHHH,0.667
6,WKKTHLS,> 22
7,HCITVTR,6.12
8,LLNLPND,6.33
9,MSAAHHH,1.23
10,EHPVWQE,1.36
11,TPGAMKS,> 22
12,SRPHFQG,> 23
13,DTAAHHH,0.688
14,SAAILQS,> 24
15,TPAAHHH,1.19
16,TQGSVSH,> 27
17,ESRQGVC,> 30
18,RKCILQS,14
19,MSGITHG,1
20,AHCTQLQ,> 156
21,DREEKMR,> 32
22,QVIPSVK,> 78
